According to the RNAGym collection of RNA variant scans (doi:10.7554/elife.90254):
The source gives no read counts; variants with many changes may rest on few reads.

B1: LINE1-full (parent)
chain: UACGUAGGUGGUUUUCCCCUGAUAGUGCUAAGGGGGCCUGGAAGUUUGGACUGGGCAGAGCUCAACACAGCGUGGCAAAGUGGCUGUGGCUAGACUGCCUCUCUGGAUUCCUCGUCACUCAGCAGGGCAUCUCUGAGAGAAAUGCC

Variants of: B1
Assay: self-cleavage, relative activity (ratio to wild type); higher = more cleavage; in vitro, sequencing; the parent is a self-cleaving ribozyme

Variant	self-cleavage
UACGUAGGUGGUUCUCCCCUGAUAGUGCUAAGGGGGCCUGGAUGUUUGGACUGGGCAGAGCACAACACAGCGUGGCAAAGUGGCUGUGGCUAGACUGCCUCUCUGGAUUCCUCGUCACUCAGCAGGGCAUCUCUGAGAGAAAUGCC [U14C A43U U62A]	0.11
UACGUAGGUGGUUCUCCCCUGAUAGUGCUAAGGGGGCCUGGAAGUUUGGGCUGGGCAGAGCUCAGCACAGCGUGGCAAAGUGGCUGUGGCUAGACUGCCUCUCUGGAUUCCUCGUCACUCAGCAGGGCAUCUCUGAGAGAAAUGCC [U14C A50G A65G]	0
UACGUAGGUGGUUCUCCCCUGAUAGUGCUAAGGGGGCCUGGAAGUUUGGACUGGGCGGAGCUCAGCACAGCGUGGCAAAGUGGCUGUGGCUAGACUGCCUCUCUGGAUUCCUCGCCACUCAGCAGGGCAUCUCUGAGAGAAAAGCC [U14C A57G A65G U115C U143A]	0
UACGUAGGUGGUUCUCCCCUGAUAGUGCUAAGGGGGCCUGGAGGCUUGGACUGGGCAGAGCUCAACACAGCGUGGCAAAGUGGCUGUGGCUAGACUGCCUCUCUGGAUUCCUCGUCACUCAGCAGGGCAUCUCUGAGGGAAAUGCC [U14C A43G U45C A138G]	2.3
UACGUAGGUGGUUCUCCCCUGAUAGUGCUAAGGGGGCCUGGAAGUUUGGGCUGGGCAGAGCUCAACACAGCGUGGCAAAGUGGCUGUGGCUGGACUGCCUCUCUGGAUUCCUCGUCACUCAGCAGGGCAUCUCUGAGAGAAAUGCC [U14C A50G A92G]	0
UACGUAGGUGGUUCUCCCCUGAUAGUGCUAAGGGGGCCUGGAGGUUUGGACUGGGCAGAGCUCAACACAGCGUGGCAAAGUGGCUGCGGCUAGACUGCCUCUCUGGAUUCCUCGUCACUCAGCAGGGCAUCUCUGAGAGAAACGCC [U14C A43G U87C U143C]	0.45
UACGUAGGUGGUUCUCCCCUGAUAGUGCUAAGGGGGCCUGGAGGUUUGGACUGGGCAGAGCUCAACACAGCGUGGCAAAGUGGCUGUGGCUAGACUGCCUCUCUGGAUUCCUCGUCACUCAGCAGGGCAACUCUGAGAGAAAUGCC [U14C A43G U130A]	1.31
UACGUAGGUGGUUCUCCCCUGAUAGUGCUAAGGGGGCCUGGAAGUUUGGUCUGGGCAGAGCUCAACACAGCGUGGCAAAGUGGCUGUGGCUAGACUGCCUUUCUGGAUUCCUCGUCACUCAGCAGGGCAUCUCUGAGAGAAAUGCC [U14C A50U C101U]	0.82
UACGUAGGUGGUUCUCCCCUGAUAGUGCUAAGGGGGCCUGGAAGUUUGGACUGGGCGGAGCUCAACACAGCGUGGCAAAGUGGCUGAGGCUAGGCUGCCUCUCUGGAUUCCUCGUCACUCAGCAGGGCAUCUCUGAGAGAAAUGCC [U14C A57G U87A A94G]	0.46
UACGUAGGUGGUUCUCCCCUGAUAGUGCUAAGGGGGCCUGGAGGUUUGGACUGGGCAGAGCUCAACACAGCGUGGCAAAGCGGCUGUGGCUAGACUGCCUCUCUGGAUUCCUCGUCACUCAGCAGGGCAUCUCUGAGAGAAAUGCC [U14C A43G U81C]	0
UACGUAGGUGGUUCUCCCCUGAUAGUGCUAAGGGGGCCUGGAGGCUUGGACUGGGCAGAGCUCAACACAGCGUGGCUAAGUGGCUGUGGCUAGACUGCCUCUCUGGAUUCCUCGUCACUCAGCAGGGCAUCUCUGAGAGAAAUGCC [U14C A43G U45C A77U]	0.78
UACGUAGGUGGUUCUCCCCUGAUAGUGCUAAGGGGGCCUGGAAGUUUGGACUGGGCUGAGCUCAACACAGCGUGGCAAGGUGGCAGUGGCUAGACUGCCUCUCUGGAUUCCUCGUCACUCAGCAGGGCAUCUCUGAGGGAAAUGCC [U14C A57U A79G U85A A138G]	0.14
UACGUAGGUGGUUCUCCCCUGAUAGUGCUAAGGGGGCCUGGAGGUUUGGACUGGGCAGAGCUCAACACAGCGUGGCAAAGUGGCUGUGGCUAGACUGCCUCUCUGGAUUCCUCGUCUCUCAGCAGGGCAUCUCUGAGAGAAAUGCC [U14C A43G A117U]	2.17
UACGUAGGUGGUUCUCCCCUGAUAGUGCUAAGGGGGCCUGGAAGUUUGGGCUGGGCAGAGCUCAACUCAGCGUGGCAAAGUGGCUGUGGCUAGACUGCCUCUCUGGAUUCCUCGUCACUCAGCAGGGCAUCUCUGAGAGAGAUGCC [U14C A50G A67U A141G]	0.11
UACGUAGGUGGUUCUCCCCUGAUAGUGCUAAGGGGGCCUGGAAGUUUGGGCUGGGCAGAGCUCAACACAGCGUGGCAAAGUGGCUGUGGCUAGACUGCCUCUCUGGAUUCCUCGUCACUCAGCAGGGCAUCUCUGAGAGAAGUGCC [U14C A50G A142G]	1
UACGUAGGUGGUUCUCCCCUGAUAGUGCUAAGGGGGCCUGGAAGUUUGGACUGGGCUGAGCUCAACACAGCGUGGCAAAGAGGCUGUGGCUAGACUGCCUCUCUGGAUUCCUCGUCACUCAGCAGGGCAUCUCUGAGAGAAAUGCC [U14C A57U U81A]	0.1
UACGUAGGUGGUUCUCCCCUGAUAGUGCUAAGGGGGCCUGGAAGUUUGGGCUGGGCAGAGCUCAACGCAGCGUGGCAAAGUGGCUGUGGCUAGACUGCCUCUCUGGAUUCCUCGUCACUCAGCAGGGCAUCUCUGAGAGAAAUGCC [U14C A50G A67G]	0.23
UACGUAGGUGGUUCUCCCCUGAUAGUGCUAAGGGGGCCUGGAAGUUUGGACUGGGCGGAGCUCAACACAGCGUGGCAAAGUGGCUGUGGCUAGACUGCCUCUCUGGAUUCCUCGUCACUCAGCAGGGCAUCUCUGGGAGAAAUGCC [U14C A57G A136G]	2.45
UACGUAGGUGGUUCUCCCCUGAUAGUGCUAAGGGGGCCUGGAAGUUUGGACUGGGCUGAGCUCAACACGGCGUGGUAAAGUGGCUGUGGCUAGACUGCCUCUCUGGAUUCCUCGUCACUCAGCAGGGCAUCUCUGAGAGAAAUGCC [U14C A57U A69G C76U]	0.18
UACGUAGGUGGUUCUCCCCUGAUAGUGCUAAGGGGGCCUGGAAGUUUGGACUGGGCGGAGCUCAACACGGCGUGGCAAAGUGGCUGUGGCUAGACUGCCUCUCUGGAUUCCUCGUCACUCAGCAGGGCAUCUCUGAUAGAAAUGCC [U14C A57G A69G G137U]	0
